Measured values reported in PMC4336329 (PLoS ONE, 2015).
The campaign covered roughly 310,000 compounds. About 14,000 (4.5%) showed an effect of 50% or more. The effect is printed as a negative number. This is one part of the list.

What follows are compounds tested against human ether-à-go-go-related gene (hERG) potassium channel (human, UniProt Q12809) (assay: primary screen, population patch clamp on CHO cells stably expressing hERG).
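Further: peak tail current of the secondary pulse compared with the same well before compound.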

Sequence of human ether-à-go-go-related gene (hERG) potassium channel (Q12809 whole entry, looked up): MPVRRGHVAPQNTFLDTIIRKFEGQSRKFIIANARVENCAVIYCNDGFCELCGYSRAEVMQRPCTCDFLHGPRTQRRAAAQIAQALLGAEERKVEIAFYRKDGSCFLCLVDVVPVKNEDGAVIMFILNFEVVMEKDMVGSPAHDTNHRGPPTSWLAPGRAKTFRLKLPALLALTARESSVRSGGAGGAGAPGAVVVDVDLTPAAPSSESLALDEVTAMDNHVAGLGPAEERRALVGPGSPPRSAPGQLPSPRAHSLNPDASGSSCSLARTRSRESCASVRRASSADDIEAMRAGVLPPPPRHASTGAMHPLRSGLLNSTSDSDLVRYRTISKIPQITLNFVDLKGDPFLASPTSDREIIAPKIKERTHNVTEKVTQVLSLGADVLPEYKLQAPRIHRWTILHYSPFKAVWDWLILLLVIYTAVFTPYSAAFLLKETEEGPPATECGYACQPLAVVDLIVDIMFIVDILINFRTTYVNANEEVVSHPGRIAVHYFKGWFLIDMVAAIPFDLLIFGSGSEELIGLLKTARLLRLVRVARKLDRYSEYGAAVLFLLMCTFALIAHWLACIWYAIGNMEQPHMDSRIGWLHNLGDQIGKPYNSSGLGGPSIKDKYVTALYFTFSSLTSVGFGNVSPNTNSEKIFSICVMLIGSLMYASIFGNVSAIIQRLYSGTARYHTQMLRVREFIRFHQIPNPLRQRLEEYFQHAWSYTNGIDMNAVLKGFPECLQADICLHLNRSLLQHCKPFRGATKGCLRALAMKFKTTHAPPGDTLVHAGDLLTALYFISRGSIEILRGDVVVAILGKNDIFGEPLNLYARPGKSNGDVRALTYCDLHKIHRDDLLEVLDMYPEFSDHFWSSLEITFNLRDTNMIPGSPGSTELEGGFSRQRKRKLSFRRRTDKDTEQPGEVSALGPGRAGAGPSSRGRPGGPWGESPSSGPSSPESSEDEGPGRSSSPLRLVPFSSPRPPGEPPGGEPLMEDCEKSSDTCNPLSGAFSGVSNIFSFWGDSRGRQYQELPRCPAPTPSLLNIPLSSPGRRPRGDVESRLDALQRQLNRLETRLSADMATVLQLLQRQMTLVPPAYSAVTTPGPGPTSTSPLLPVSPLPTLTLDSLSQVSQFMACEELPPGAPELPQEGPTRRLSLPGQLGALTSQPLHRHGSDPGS

Compound	hERG current change (%, negative = inhibition) at 10uM
COc1ccc2c(=O)c(N3C(=O)c4ccccc4C3=O)c(C)oc2c1	-7.66%
NC(=O)NC(c1ccc(Cl)cc1)c1ccccc1Cl (centres unmarked)	-2.96%
NS(=O)(=O)c1ccc(-c2ccc(C=C3C(=O)NC(=O)NC3=O)o2)cc1	4.09%
CCCCC1S/C(=N/N=C/c2ccc(OC)cc2)N(Cc2ccc(OC)cc2)C1=O (centres unmarked)	6.95%
O=C(O)Cc1c[nH]c2cccc(O)c12	9.84%
COc1ccc([C@H]2CC(=O)C=C(C#CC(C)(C)C)C2)cc1	-9.24%
CCOC(=O)c1nc(NCc2ccccc2F)c2ccccc2n1	-9.15%
COc1ccc(CN=Cc2c(C(F)(F)F)[nH][nH]c2=O)cc1	10.8%
O=c1c2ccccc2nnn1COc1ccc(Cl)cc1Br	22.2%
Cc1cc(=O)n2nc(N3CCCC(C(=O)N4CCOCC4)C3)sc2n1 (centres unmarked)	3.1%
c1ccc(SCc2nc3ccccc3[nH]2)cc1	-9.85%
O=S1(=O)CCN2C(=N1)Sc1c2ccc2c1CCCC2	6.41%
C=CCn1c(-c2csc(-c3ccc(Cl)cc3)n2)n[nH]c1=S	10.7%
Cc1cccc(NC(=O)c2nc[nH]c2C(=O)Nc2ccccc2[N+](=O)[O-])c1	13.5%
NNC(=O)c1cccn(Cc2cccc(C(F)(F)F)c2)c1=O	21.5%
CC1CCN(C2=C(NS(=O)(=O)c3ccc(Cl)cc3)C(=O)c3ccccc3C2=O)CC1	-8.29%
Cc1ccc(/C=N/NC(=O)CSc2nc3ccccc3n2C)s1	-17.4%
COCCN(C(=O)CN1CCc2ccccc2C1)c1c(N)n(Cc2ccccc2)c(=O)[nH]c1=O	-3.43%
CCOCCCNC(=O)C(NC(=O)Cc1cccs1)c1ccc(Cl)cc1 (centres unmarked)	-0.0503%

Compound	hERG current change (%, negative = inhibition) at 10uM
Cc1ccc(OCC(=O)NCc2cccs2)cc1	-1.85%
COc1ccccc1CN1Cc2cccc3c2[C@@H](CC1=O)[C@H](O)[C@H](O)C3	4.43%
Cc1ccc(/C(N)=N/OC(=O)CCC2CCCCC2)cc1	-10.7%
O=C(Nc1ccc(C(=O)O)cc1)/C(=C\c1ccc2c(c1)OCO2)NC(=O)c1ccc(Br)o1	17.6%
O=C(c1cc(-c2ccccn2)nc2ccc(Br)cc12)N1CCN(S(=O)(=O)c2ccccc2)CC1	1.37%
COC(=O)c1sc(NC(=O)c2ccc([N+](=O)[O-])o2)c(C#N)c1C	12.3%
O=C(Nc1cc(C(F)(F)F)ccc1F)C1CCCC1	14.7%
CN(C(=O)c1cccc(C#N)c1)c1nnc(-c2cnccn2)s1	-3%
CCN1/C(=C\C=C2\C(=O)N(C)C(=S)N2C)Sc2ccccc21	24%
CN(C(=O)COC(=O)c1ccccc1Nc1ccccc1)C1CCS(=O)(=O)C1 (centres unmarked)	-41.4%
Oc1ccc(/C=N/Nc2ccc(C(F)(F)F)cn2)c(O)c1	25.3%
Cc1ccc(OCc2cc(C(=O)N(C)CCc3ccccn3)no2)cc1C	-33.6%
Cc1ccc(OCc2ccc(C(=O)N3CCCC3)o2)c([N+](=O)[O-])c1	-46.6%
O=C(CN1C(=O)CCC1=O)Nc1nc(-c2cccs2)cs1	-8.31%
CN1CCN(CCCN2c3ccccc3Sc3ccc(S(=O)(=O)N(C)C)cc32)CC1.CS(=O)(=O)O	-57.4%
Cc1noc(NS(=O)(=O)c2ccc(N3Cc4ccccc4C3=O)cc2)c1C	8.82%
CCOc1ncccc1C(=O)OCC(=O)NC(=O)c1ccccc1	0.726%
CC(C)CC(NC(=O)OC(C)(C)C)c1cn([C@@H](CCCCNC(=O)OC(C)(C)C)C(=O)N2CCN(C(=O)OC(C)(C)C)CC2)nn1 (some centres unmarked)	-5.01%
CC(c1ccc2c(c1)OCO2)n1c(=S)[nH]c2ccccc2c1=O (centres unmarked)	1.32%

Compound	hERG current change (%, negative = inhibition) at 10uM
O=C(N1CCOCC1)C(F)(F)C(F)(F)C(F)(F)C(F)(F)C(=O)N1CCOCC1	5.81%
COc1ccc(C(=O)Nc2ccccc2C(=O)NCc2ccco2)cc1	-24.9%
COc1ccc(C)cc1NC(=O)c1ccc(S(=O)(=O)N2CCCCC2)cc1	11.6%
Cc1cccc(-n2c(-c3ccccc3)nc3ccccc3c2=O)n1	-2.86%
CCc1ccc(C(=O)Nc2cc(C)on2)o1	15.5%
CC(C)CCn1c(=O)c2ccccc2n2c(CN3CCCC3)nnc12	-2.3%
COc1ccc(N2CCN(C(=O)/C(C#N)=C/c3ccccc3)CC2)cc1	-17.3%
COc1ccc(-c2nnc3c4ccccc4c(C)nn23)cc1	-16.4%
O=C(NC1CC2CCCC(C1)N2S(=O)(=O)c1ccccc1)c1ccccc1 (centres unmarked)	-44%
COc1ccc(-n2c(C)c(C)c3c(NCCO)ncnc32)cc1	8.73%
O=C(NC1CCCCC1)C(c1ccccc1)N1CCCC1 (centres unmarked)	7.48%
CN(CCOc1ccc(Cl)cc1)CC(=O)Nc1ccc(OC(F)(F)F)cc1	8.27%
O=C(OC1CCOC1=O)c1cncc(Br)c1 (centres unmarked)	-15.7%
COc1ccc(C(=O)COC(=O)/C=C/c2ccccc2)cc1	6.99%
O=C(COC(=O)c1cc(S(=O)(=O)NCc2ccccc2)ccc1O)c1cc2ccccc2o1	11.9%
CC(C)c1ccc(-n2c(O)c(C=NCCN3CCNCC3)c(=O)[nH]c2=S)cc1	24.1%
O=C(c1ccc2c(c1)OCO2)N1CCN=C1SCc1ccccc1	-29.9%
O=C(COC(=O)C1CCN(S(=O)(=O)c2cccs2)CC1)NCc1ccccc1	-23.6%
